Reference: the RNAGym collection of RNA variant scans (doi:10.1093/nar/gkz1192)
Read counts are not given, so values of variants with three or more changes are uncertain.

B1: CPEB3 Ribozyme (parent)
chain: UAACAGGGGGCCACAGCAGAAGCGUUCACGUCGCAGCCCCUGUCAGAUUCUGGUGAAUCUGCGAAUUCUGCUGUAUAUCUC

Variants of: B1
Test: self-cleavage, relative activity (ratio to wild type); higher = more cleavage; in vitro, sequencing
Summary of the method: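 Libraries of CPEB3 self-cleaving ribozyme mutants came from rounds of error-prone PCR and carried barcodes, which DNA sequencing matched to variants. In vitro transcription used T7 RNA polymerase at 37°C for 5 hours, with a further 15 min in DNase I before EDTA stopped the reaction; the ribozymes cleaved during both steps. The RNA was reverse transcribed with template switching and sequenced on Illumina. Relative activity is the cleaved/total read fraction of a variant divided by that of the unmutated ribozyme, averaged over three batches with at least 5 reads.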

| Variant | self-cleavage |
| --- | --- |
| UAACAGGGGGCCACGGCAGAAGCGCUCACGUCGCAGCCCCUGUCAGAUUCUGGUGAAUCUGCGAACUCUGCUGUAUAUCUC [A15G U25C U66C] | 0.29 |
| UAACAGGGGGCCACGGCAGAAGCGCUCACGUCGCAGCCCCUGUCAGAUUCUGGUGGAUCUGCGGAUUCUGCCGUAUAUCUC [A15G U25C A56G A64G U72C] | 0.19 |
| UAACAGGGGGCCACGGCAGAAGCGCUCACGACGCUGCCCCUGUCAGAUUCUGGUGGAUCUGCGAAUUCUGCUGUAUAUCUC [A15G U25C U31A A35U A56G] | 0.07 |
| UAACAGGGGGCCACGGCAGAAGCGCUCACGUCGUGGCCCCGGUCGGAUUCUGGUGAAUCUGCGAAUUCUGCUGUAUAUCUC [A15G U25C C34U A35G U41G A45G] | 0.04 |
| UAACAGGGGGCCACGGCAGAAGCGUACACAUCGCAGCCACCGUCAGAUUCUGGUGAGUCUGCGAAUCCUGCUGUAUAUCUC [A15G U26A G30A C39A U41C A57G U67C] | 0.05 |
| UAACAGGGGGCCACGGCAGAAGCGUACUCGUCGCAGCCCCUGUCAGAUACUGGUGUGUCUGCGAAUUCUGCUGUAUAUCUC [A15G U26A A28U U49A A56U A57G] | 0.14 |
| UAACAGGGGGCCACGGCAGAAGCGUUCACGUCACUGCCCCUGUCAGAUUCCGGUGAAUCUGCGAAUUCUGCUGUAAGUCUC [A15G G33A A35U U51C U76A A77G] | 0.15 |
| UAACAGGGGGCCACGGCAGAAGCGUUCACGUCGCAGCCCCUAUCAGAUUCUGGAUAGUCUGCGAAUUCUGCUGUGUACCUC [A15G G42A U54A G55U A57G A75G U78C] | 0.04 |
| UAACAGGGGGCCACGGCAGAAGCGUACACGACGCAGCCCCCGUCAGAUUCUGGUGAAUCUGCGAAUUAUGCAGUAUAUCUC [A15G U26A U31A U41C C68A U72A] | 0.08 |
| UAACAGGGGGCCACGGCAGAAGCGUCCACGUCGCGGCCCCUGUCAGAUUCUGGUGAAUCUGCGAAUUCUGCUGUAUAUCUC [A15G U26C A35G] | 0.35 |
| UAACAGGGGGCCACGGCAGAAGCGUCCUCGUCGCAGCCCCUGUCAGAUUCUGGUGAAUCUGCGGAUUCUGCUGUAUAUCUC [A15G U26C A28U A64G] | 0.36 |
| UAACAGGGGGCCACGGCAGAAGCGUCCACGUCGCAGCCCCUGUCGGAUUCUGGUGUAUCUGCGAAAUCUGCUGUAUAUCUC [A15G U26C A45G A56U U66A] | 0.11 |
| UAACAGGGGGCCACGGCAGAAGCGCUCACGUCGCAGCCCCUGUCAGAUUCUGGUGAAUCUGCGAAUGCUGCUGUAUAUCUC [A15G U25C U67G] | 0.08 |
| UAACAGGGGGCCACGGCAGAAGCGCUCACGUCGCAGCCCCCGUCAGAUUCUCGUGAAUCUGCGAAUUCUGCUGCAUAUCUC [A15G U25C U41C G52C U74C] | 0.09 |
| UAACAGGGGGCCACGGCAGAAGCGUUCACGUCGCAGCCCCUGUCAUUGUCUGGUGAAUCUGCGAAUUCUGCUGUAUACCUC [A15G G46U A47U U48G U78C] | 0.11 |
| UAACAGGGGGCCACGGCAGAAGCGUUCACAUCGCAGCCCCGGUCAGAUUCCGGUGAAUCUGCGAAUUCUGCUGUACGUCUC [A15G G30A U41G U51C U76C A77G] | 0.06 |
| UAACAGGGGGCCACGGCAGAAGCGCUCACGUCGCAGCCCCUGUCAGAUUCUGGUGAAUCCGCGAAUUCUGCUGUAUAUCUC [A15G U25C U60C] | 0.44 |

| Variant | self-cleavage |
| --- | --- |
| UAACAGGGGGCCACGGCAGAAGCGCUCACGUCGCUGCCCCACUCAGAUUCUGGUGAAUCUGCGAAUUCUGCUGUGUACCUC [A15G U25C A35U U41A G42C A75G U78C] | 0.05 |
| UAACAGGGGGCCACGGCAGAAGCGUCCACGUCGCAGCCCCUGUCAGAUUCUGGUGAAUCUGCGUAUUCUGCUGUAUAUCUC [A15G U26C A64U] | 0.24 |
| UAACAGGGGGCCACGGCAGAAGCGCUCACGUCGCAGCCCCUGUCAGAUUCUGGUGAAUCUGCGAGUUCUGCUGUAUAUCUC [A15G U25C A65G] | 0.16 |
| UAACAGGGGGCCACGGCAGAAGCGUUCACGUCAUAGCCCCAGUCAGGUUCUGGUGAAUCUGCGAAUUCUGCUGUACAUCUC [A15G G33A C34U U41A A47G U76C] | 0.04 |
| UAACAGGGGGCCACGGCAGAAGCGUUCACCUCGCAGCCCUCGUCAGACUCUAGUGAAUCUGCGAAUUCUGCUGUAUAUCUC [A15G G30C C40U U41C U48C G52A] | 0.12 |
| UAACAGGGGGCCACGGCAGAAGCGUCCACGUCGCAGCCCCUGUCAGGUUCUGGUGAAUCUGCGAAUUCUGCUGUAUAUCUC [A15G U26C A47G] | 0.59 |
| UAACAGGGGGCCACGGCAGAAGCGCUCACUUCGCAGCCCCCGUCAGAUUCUGGUGGAUCUGCGAAUUCUGCUGUAUAUCUC [A15G U25C G30U U41C A56G] | 0.08 |
| UAACAGGGGGCCACGGCAGAAGCGCUCACGUCGCAGCCCCUGUCAGAUUCUGGUGAAUCUGCGAAUUCUGCUGUACAUCUC [A15G U25C U76C] | 0.09 |
| UAACAGGGGGCCACGGCAGAAGCGAUCGCGUCGCAGCCCCUGUCAGACUCUGGUGAAUCUGCGAGUUCUGCUGUAUAUCAC [A15G U25A A28G U48C A65G U80A] | 0.09 |
| UAACAGGGGGCCACGGCAGAAGCGUACACGUCGCAGCCCCUGUCAGACUCUGGAGAAUCUGCGAAUUCUGCUGUAUAUCUC [A15G U26A U48C U54A] | 0.37 |
| UAACAGGGGGCCACGGCAGAAGCGUUCACGUCGCAACCCCGGCCAGAUUCUGGUGAAUCUGCGAAUUCUGCUGUAUAUCUC [A15G G36A U41G U43C] | 0.24 |
| UAACAGGGGGCCACGGCAGAAGCGCUCACGCCGCAGCCCCUGUCAGAUUCUGGUGAGUCUGCGAAUUCUGCUGUAUACCUC [A15G U25C U31C A57G U78C] | 0.17 |
| UAACAGGGGGCCACGGCAGAAGCGCUCACGUCGCAGCCCCUGUCAGAUUCAGGUGAAACUGCGAACUCUGCUGUAUAACUC [A15G U25C U51A U58A U66C U78A] | 0.17 |
| UAACAGGGGGCCACGGCAGAAGCGUCCACGUCGCAGCCCCUGUCUGAUUCUGGUGAAUCUGCGAAUUCUGCUGUAUAUCUC [A15G U26C A45U] | 0.29 |
| UAACAGGGGGCCACGGCAGAAGCGAUCACGUCGCAGCCCCUGUCAGAUUCUGGUGAGUCUGCGAAUUCUGCUGUAUAUCUC [A15G U25A A57G] | 0.66 |
| UAACAGGGGGCCACGGCAGAAGCGUCCACGUCGCUGCCCCUGUCAGAUUCUGGUGAAUCUGCGUAUUCUGCCGUAUACCUC [A15G U26C A35U A64U U72C U78C] | 0.12 |
| UAACAGGGGGCCACGGCAGAAGCGUUCACGUCACAGCCCCUGUCAGAAUGUGGAGAAUCUGCGAAUUCUGCUGCAUAUCUC [A15G G33A U48A C50G U54A U74C] | 0.05 |
